The values below come from the RNAGym collection of RNA variant scans (doi:10.7554/elife.90254).

First the molecules themselves.
B1: OR4K15 (parent)
chain: GUUAACGGUCAUAGGCCAUGGAAACUAGGAGCACCAUUUCGCUGCCAGUGAAGAAAUGAACAAAGAAAAUCUGGGCCAGGCAGGCAUCAAAAGAAAUAGUCUUGCGCUCAACCAGAAAGUCUGUAAUCAUUUUAAGGGUA

The source gives no read counts; variants with many changes may rest on few reads.

In the data set the parent is B1. Put plainly: self-cleavage, relative activity (ratio to wild type); higher = more cleavage; in vitro, sequencing; the parent is a self-cleaving ribozyme.
For the variant A23G A91G U130C, the self-cleavage was found to be 0.63.
As to A23G A95G U97A, the self-cleavage worked out at 1.42.
For A23G A33G A60U U132A, the self-cleavage worked out at 1.12.
In the case of A23G A33G C46U U108C A126G, the self-cleavage was 0.
For the variant A23G A36G U49C, the self-cleavage is 0.2.
With A23G A24G A63G the figure was 0.78; with A23G A59U A60G, 1.26; with A23G A66G U108C, 0.02.
Regarding A23G U26A A86G A92G U127A, the self-cleavage was 1.61.
Turning to A23G A95G A96G, the self-cleavage amounted to 0.98.
Under A23C A82U A91G A92G C109U A134G stands 0.04; under A23G A54G A96G U130C, 0.
In the case of A23G A67G G123A A126G, the self-cleavage turned out to be 1.02.
For A23G A68G G80A U127C, the self-cleavage turned out to be 0.01.
On to A23G A64G A90G, for which the self-cleavage stood at 0.31.
Regarding A23G C35U A54G, the self-cleavage came out at 0.78.
Turning to A23G A56G U87C C121A, the self-cleavage is 2.54.
Consider A23G A36G U132C, for which the self-cleavage amounted to 1.02.
With A23G A47U A55C A96G A110G U122C, the self-cleavage amounted to 0.03.
On to A23G A47G U102C, for which the self-cleavage turned out to be 1.18.
In the case of A23G A68G A86G U87C A95G, the self-cleavage is 1.05.
With A23G A33U U108C the figure was 0.04; with A23G A66G U70G A90U A92G U97C, 0.67; with A23G G53U U108C, 0.03.
For the variant A23G A33G U103A, the self-cleavage turned out to be 0.31.
With A23G A62G A91G, the self-cleavage is 0.62.
For the variant A23G A78U U103C, the self-cleavage amounted to 0.11.
With A23C A51G A52G A94G A96G U108C the figure was 0.03.
With A23G A27G A62G A78U U87A A135G the figure was 0.13; with A23G C40U A125G A129C, 0.11.
Turning to A23G A52G A117U, the self-cleavage turned out to be 0.53.
As to A23G A54G A78U U108C, the self-cleavage worked out at 0.04.
For the variant A23G A68G A91G A125G, the self-cleavage came out at 0.55.
As to A23G A59G A110G, the self-cleavage came to 0.21.
For the variant A23G G83A A91G A140G, the self-cleavage is 1.57.
As to A23G A52U U108C, the self-cleavage is 0.07.
With A23G A24G A54G, the self-cleavage is 1.15.
Regarding A23C G65A U102C, the self-cleavage is 1.29.
Consider A23G A69U G93U U131C, for which the self-cleavage came out at 0.76.
Consider A23G A30G C32U, for which the self-cleavage was 1.15.
Turning to A23G A56G A116U, the self-cleavage worked out at 0.34.
Under A23C U43A A68G stands 1.33.
As for A23G A111G U120C U131C, the self-cleavage turned out to be 0.
Take A23G A86G A96U U102C: the self-cleavage was 1.88.
On to A23G G44U A55G A78G A95G U122C, for which the self-cleavage turned out to be 0.06.
As for A23G A36U A60G A82G, the self-cleavage was 0.38.
Regarding A23G A54G A110G, the self-cleavage is 0.14.
With A23G A129G U131C the figure was 0.87; with A23G A52G U127C, 1.26.
Under A23G A47G A86G U102C G123U stands 1.9; under A23G A111G U122G, 0.04; under A23G A33G U100C U122A, 1.32.
Consider A23G A24G A30G A78C U97C A117G U139A, for which the self-cleavage amounted to 0.36.
As for A23G A59G A86U, the self-cleavage was 1.61.
Turning to A23G A78G A125G, the self-cleavage worked out at 0.1.
Take A23G A55G A86G: the self-cleavage was 0.34.
As to A23G A24U U39A U57C A64G A67G U72A A94G, the self-cleavage stood at 0.12.
For the variant A23C A62G A94G, the self-cleavage came out at 2.22.
Turning to A23G A78C G106A C113U A116G G137A, the self-cleavage came to 0.
With A23G A91G A118G U120C U130C U139C, the self-cleavage turned out to be 0.17.
As for A23G A33U G83U A95G, the self-cleavage was 0.67.
For the variant A23G A30G C45U A64U U72C A86U, the self-cleavage turned out to be 0.07.
Under A23G A47G A59G G99A stands 0.44; under A23G A56G A62G A67G U70A U87C, 0.84; under A23G A63G U97C A114G, 0.11.
Consider A23G A78U U97C A117G, for which the self-cleavage was found to be 0.27.
Under A23G A27G A36U A66G A98U U131C stands 2.37; under A23G A47G U122C, 0.61; under A23G A67G G74A, 0.37.
As to A23G A66G A140G, the self-cleavage came out at 1.21.
Regarding A23G A55U A63G C113U, the self-cleavage was found to be 0.11.
Turning to A23G A63G U97A A111U, the self-cleavage was determined as 0.21.
As for A23G A30G A111G, the self-cleavage came to 0.09.
In the case of A23G A36G G44A U130C, the self-cleavage worked out at 0.44.
In the case of A23G A51G A56U A126U U139C, the self-cleavage is 0.71.
As for A23G A78U U87A A114U A117G U130C, the self-cleavage was 0.01.
On to A23G U26C A56G, for which the self-cleavage was 0.47.
Under A23G A51G A68G A114G A126G stands 0.05; under A23G A67G A82G, 0.44; under A23G U26C A98G, 0.69.
Regarding A23G A27G U139C, the self-cleavage amounted to 0.46.
Regarding A23G A89G U97C U120G, the self-cleavage amounted to 0.44.
For the variant A23G A52G A68G G119U A126U, the self-cleavage stood at 0.89.
A23G A33U U38C A51U: the self-cleavage worked out at 1.35.
